{"source": "PubChem BioAssay (Tox21)", "note": "The inconclusive results got no clear call from the source; some entries with a clear call stand among them for comparison. Potencies of inconclusive entries are doubtful fits and often do not repeat. Active and inactive are the calls of the source. The call rests on the fitted dose curve; in most records, active means well fitted curve in the direction sought with a large enough effect in the repeat runs; inconclusive means weak or mixed curves; inactive means no such curve, though single readings can be large; an effect the other way counts as inactive or inconclusive. On the % scale 0 is the no-effect control and ±100 the full control effect; potency means the concentration at half of the fitted maximal effect; tags describe the fitted curve by direction and shape."}
{"molecular_target": "Aryl hydrocarbon receptor (Homo sapiens) (UniProt P35869)", "sequence (P35869 whole entry, looked up)": "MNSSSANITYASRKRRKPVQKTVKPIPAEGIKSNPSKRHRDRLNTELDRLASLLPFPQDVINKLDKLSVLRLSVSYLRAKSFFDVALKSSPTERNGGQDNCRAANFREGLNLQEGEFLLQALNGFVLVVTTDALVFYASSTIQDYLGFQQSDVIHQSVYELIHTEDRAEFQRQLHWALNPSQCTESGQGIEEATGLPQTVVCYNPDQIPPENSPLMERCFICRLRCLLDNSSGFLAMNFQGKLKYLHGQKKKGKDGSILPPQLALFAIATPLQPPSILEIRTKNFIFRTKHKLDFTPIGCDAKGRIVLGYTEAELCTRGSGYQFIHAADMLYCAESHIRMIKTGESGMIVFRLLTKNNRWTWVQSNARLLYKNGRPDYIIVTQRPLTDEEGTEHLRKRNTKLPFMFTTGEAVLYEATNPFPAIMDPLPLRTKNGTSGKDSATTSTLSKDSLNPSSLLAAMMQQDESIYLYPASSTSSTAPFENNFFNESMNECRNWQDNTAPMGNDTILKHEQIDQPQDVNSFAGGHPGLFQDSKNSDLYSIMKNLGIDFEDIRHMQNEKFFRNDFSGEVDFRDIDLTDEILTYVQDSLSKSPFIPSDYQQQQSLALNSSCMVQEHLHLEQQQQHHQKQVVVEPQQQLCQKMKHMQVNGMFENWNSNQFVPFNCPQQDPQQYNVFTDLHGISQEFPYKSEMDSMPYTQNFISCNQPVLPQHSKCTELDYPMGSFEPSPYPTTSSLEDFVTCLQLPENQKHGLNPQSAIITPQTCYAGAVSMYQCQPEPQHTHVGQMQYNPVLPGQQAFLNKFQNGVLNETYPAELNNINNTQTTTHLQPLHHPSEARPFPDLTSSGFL", "assay": "qHTS assay to identify small molecule that activate the aryl hydrocarbon receptor (AhR) signaling pathway (AID 743085); further: nearly all actives have a fitted effect of over 15% in size;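 on activation: HG2L7.5c1 human HepG2 liver cells with stably integrated DRE-driven firefly reporter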", "conditions": "HepG2 AhR-luc (HG2L7.5c1), luciferase, 24 h; series mostly up to 70.3 µM", "summary_of_the_method": "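Cell line HG2L7.5c1 (human hepatoma, 20× DRE-luc). Plated, 5 h 37C, compound/DMSO added, 24 h 37C. CellTiter-Fluor 30 min 37C → fluorescence; then ONE-Glo 30 min RT → luminescence.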"}
{"compound": "COc1ccc(C(=O)c2cccc(O)c2)c(OC)c1", "Potency": "active: 17.2 µM"}
{"compound": "Cc1nc(C)c(C)nc1C", "Potency": "inconclusive: 54.4 µM [activator, partial curve, poor fit]"}
{"compound": "Oc1ccc2c(c1)OC[C@@H](N1CCC(O)(c3ccc(F)cc3)CC1)[C@H]2O", "Potency": "inconclusive: 11.9 µM [activator, partial curve]"}
{"compound": "O=C1CCN(c2ccccc2)N1", "Potency": "inconclusive: 68.8 µM [activator, single point]"}
{"compound": "COC=O", "activation": "inactive: -0.706% [at 8.47 µM]"}
{"compound": "CCOc1ccccc1N", "Potency": "inconclusive: 54.1 µM [activator, partial curve]"}
{"compound": "CCCCOc1cc(C(=O)OCCN(CC)CC)ccc1N", "Potency": "inconclusive: 5.07 µM [activator, partial curve]"}
{"compound": "COc1cccc2sc(N)nc12", "Potency": "active: 27.5 µM"}
{"compound": "CCC(=O)O[C@]1(C(=O)CCl)[C@@H](C)C[C@H]2[C@@H]3CCC4=CC(=O)C=C[C@]4(C)[C@@]3(F)[C@@H](O)C[C@@]21C", "Potency": "inconclusive: 11.9 µM [activator, partial curve, poor fit]"}
{"compound": "Nc1ccc(C(=O)Oc2ccccc2)c(O)c1", "Potency": "inconclusive: 29.8 µM [activator, partial curve, poor fit]"}
{"compound": "Cc1cc2c(s1)Nc1ccccc1N=C2N1CCN(C)CC1", "Potency": "inconclusive: 33.5 µM [activator]"}
{"compound": "c1ccc(OCc2ccc(CCCN3CCOCC3)cc2)cc1", "Potency": "inconclusive: 21.1 µM [activator, partial curve, poor fit]"}
{"test_system": "not listed separately", "assay": "qHTS assay to identify small molecule that activate the aryl hydrocarbon receptor (AhR) signaling pathway - cell viability counter screen (AID 743086); further: nearly all actives have a fitted effect of over 45% in size", "conditions": "HepG2-AhR-luc viability, CellTiter-Fluor, 24 h; series mostly up to 70.3 µM", "summary_of_the_method": "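Cytotoxicity counter screen: CellTiter-Fluor signal (30 min, 37 C) in 4000 HepG2 cells/well carrying the DRE-luciferase reporter, following 24 h compound exposure at 37 C.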"}
{"compound": "CC(C)(C)c1ccc(OCC2CO2)cc1", "note": "(stereo not drawn)", "Potency": "inactive"}
{"compound": "CCCCC(=O)OCC(=O)[C@H]1[C@H](C)C[C@H]2[C@@H]3C[C@H](F)C4=CC(=O)C=C[C@]4(C)[C@@]3(F)[C@@H](O)C[C@@]21C", "Potency": "inconclusive: 33.5 µM [falling, single point]"}
{"compound": "CCCCCC1CCC(=O)O1", "note": "(stereo not drawn)", "Potency": "inactive"}
{"compound": "CCCC(=O)Nc1ccc(OCC(O)CNC(C)C)c(C(C)=O)c1", "note": "(stereo not drawn)", "Potency": "inactive"}
{"compound": "NC(=O)COCCN1CCN(C(c2ccccc2)c2ccc(Cl)cc2)CC1", "note": "(stereo not drawn)", "Potency": "inconclusive: 29.8 µM [falling, single point]"}
{"compound": "Cc1cc2c(s1)Nc1ccccc1N=C2N1CCN(C)CC1", "Potency": "inconclusive: 21.1 µM [falling, partial curve]"}
